According to the GPR68 mutational scans of Howard et al. (2025):
Scores with a large standard error are left out. The source holds two more conditions with little spread; they are left out. Read del as a deletion of the residues named and ins as an insertion between two positions. For some assays here: The data file names ogerin without a concentration.

B1: GPR68, Q15743 (parent)
chain: MGNITADNSSMSCTIDHTIHQTLAPVVYVTVLVVGFPANCLSLYFGYLQIKARNELGVYLCNLTVADLFYICSLPFWLQYVLQHDNWSHGDLSCQVCGILLYENIYISVGFLCCISVDRYLAVAHPFRFHQFRTLKAAVGVSVVIWAKELLTSIYFLMHEEVIEDENQHRVCFEHYPIQAWQRAINYYRFLVGFLFPICLLLASYQGILRAVRRSHGTQKSRKDQIQRLVLSTVVIFLACFLPYHVLLLVRSVWEASCDFAKGVFNAYHFSLLLTSFNCVADPVLYCFVSETTHRDLARLRGACLAFLTCSRTGRAREAYPLGAPEASGKSGAQGEEPELLTKLHPAFQTPNSPGSGGFPTGRLA

How the values were obtained:
[1] = variants of: B1; experiment: cAMP reporter score (Enrich2 score, wild type = 0); higher = more signal; HEK293T, FACS bins
[2] = variants of: B1; experiment: surface expression score (Enrich2 score, wild type = 0); higher = more signal; HEK293T, FACS bins

| Variant | cAMP reporter score ([1]; pH 5.5) | cAMP reporter score ([1]; pH 6) | cAMP reporter score ([1]; pH 6.5, modulator: ogerin) | cAMP reporter score ([1]; pH 6, modulator: ogerin) | surface expression score [2] |
| --- | --- | --- | --- | --- | --- |
| V143D | -0.395 | -0.824 | -0.433 |  |  |
| V143E | -1.11 | -1.19 | -1.2 | -1.56 | -1.37 |
| V143F | -0.018 | -1.63 | -0.571 | -0.133 | -1.04 |
| V143G | 0.485 | -1.62 | -0.2 | 0.265 | -0.759 |
| V143H | -1.14 | -1.19 | -1.24 | -1.18 | -3.33 |
| V143I | 1.12 | 1.12 | 0.787 | 1.52 | 1.13 |
| V143K | -1.17 | -0.379 | -1.57 | -1.27 | -3.13 |
| V143L | 0.148 | -0.253 | -0.531 | -0.4 | -0.308 |
| V143M | -0.405 | -0.15 | -0.515 | -0.495 | -0.453 |
| V143N | -1.46 | -1.08 | -0.838 | -1.68 | -1.98 |
| V143P | -1.76 | -0.566 | -1.67 | -2.26 | -2.82 |
| V143Q | -1.36 | -1.01 | -1.34 | -1.76 |  |
| V143R | -0.493 | -0.261 | -0.921 | -1.49 | -3.19 |
| V143S | 0.924 |  | -0.597 | 0.263 | -0.651 |
| V143T | 0.636 | 0.23 | 0.928 | 0.284 | -0.007 |
| V143W | -1.69 | -1.51 | -0.807 |  | -2.72 |
| V143Y | -0.728 |  | -1.55 | -1.49 | -1.68 |
| V143_I145del | -1.4 | -0.514 | -0.518 | -2.15 | -2.73 |
| I145_W146del | -1.52 | -0.427 | -1.35 | -1.15 | -2.11 |
| I145_W146insGS | -0.956 | -0.6 | -0.923 | -1.8 | -1.8 |
| I145del | -0.376 | -1.58 | -0.801 | -0.856 | -2.29 |
| W146_A147del | -1.15 | -0.303 | -0.555 | -1.41 | -1.93 |

| Variant | cAMP reporter score ([1]; pH 5.5) | cAMP reporter score ([1]; pH 6) | cAMP reporter score ([1]; pH 6.5, modulator: ogerin) | cAMP reporter score ([1]; pH 6, modulator: ogerin) | surface expression score [2] |
| --- | --- | --- | --- | --- | --- |
| W146_K148del | -1.62 | -0.698 | -0.689 | -1.12 | -2.68 |
| K148_E149del | -1.6 | -1.1 | -0.831 | -1.42 | -2.45 |
| K148_E149insG | -1.49 | -1.07 | -1.29 | -1.81 | -2.15 |
| E149A | -1.54 | 1.57 |  | -0.701 | -0.427 |
| E149C | -0.485 |  | -0.452 |  | -0.411 |
| E149D | -0.646 |  | -1.3 | -1.63 | -2.76 |
| E149I | 0.567 | 3.73 |  | 0.54 | -0.994 |
| E149L | -0.482 |  | -0.395 | -0.642 |  |
| E149M | 3.34 |  | -0.385 |  |  |
| E149P | -1.63 |  | -2.06 | -1.48 | -2.55 |
| E149Q | -0.408 |  | -2.41 | -1.49 |  |
| E149R | 0.86 |  | -1.81 | -1.7 | -1.46 |
| E149S | -1.88 | -1.61 | -1.99 | -0.653 | -3.25 |
| E149V | 1.34 | 3.65 | 0.571 | 0.406 | 1.04 |
| E149_L150del | -1.98 | -0.912 | -0.75 | -2.35 | -2.46 |
| L150_L151insGSG | -2.34 | -0.841 | -1.44 |  | -1.79 |
| L151A | -0.31 |  | -0.197 | -0.63 | 1.37 |
| L151C | -0.762 | -1.58 |  | -1.91 | -0.644 |
| L151D | -2.43 | -1.16 | -1.25 | -1.01 | -1.85 |
| L151E | -1.2 | -1.85 | -1.31 |  |  |
| L151F | -0.02 | -0.609 | -1.26 | -0.855 | 0.26 |
| L151G | -0.304 | -0.956 | -1.39 | -0.749 | 0.161 |

| Variant | cAMP reporter score ([1]; pH 5.5) | cAMP reporter score ([1]; pH 6) | cAMP reporter score ([1]; pH 6.5, modulator: ogerin) | cAMP reporter score ([1]; pH 6, modulator: ogerin) | surface expression score [2] |
| --- | --- | --- | --- | --- | --- |
| L151H | -1.44 | -1.44 | -1.22 | -2.33 | -2.87 |
| L151I | 0.48 | -1.24 | -0.991 | -0.29 | -0.146 |
| L151K | -2 | -1.1 | -2.21 |  | -1.41 |
| L151M | -0.606 | 0.161 | -0.563 | -0.478 | -0.439 |
| L151N | -1.23 |  | -0.523 | -0.408 | -2.67 |
| L151P | 0.931 | 1.22 | -0.384 | -1.03 | -1.72 |
| L151Q | -1.12 |  | -1.41 | -1.59 | -3.3 |
| L151R | -1.43 | -1.03 | -2.45 |  | -2.75 |
| L151S | -1.79 |  | -1.84 | -0.647 |  |
| L151T | -0.392 |  | -0.433 | 0.556 | -0.43 |
| L151V | 1.1 | -0.186 | 0.963 | 0.505 | 1.7 |
| L151W | -0.125 |  |  |  | -0.361 |
| L151Y | -0.967 |  | -2.48 | -1.58 | -1.55 |
| L151_T152del | -1.2 | -1.51 | -1.37 | -0.997 | -1.85 |
| L151_T152insG | -1.85 | -2.31 | -1.74 | -1.14 | -0.426 |
| L151_T152insGSG | -0.272 | -0.801 |  | -2.02 | -0.99 |
| L151del | -0.393 | -1.04 | -0.755 | -2.01 | -0.651 |
| T152A | 0.172 | -0.135 | -0.495 | -0.892 | 0.007 |
| T152C | -0.486 | -1.11 | -1.37 | -1.3 | 0.175 |
| T152D | -0.926 | -0.946 | -1.55 | -2.23 | -1.6 |
| T152E | -1.02 | -1.04 | -1.96 | -1.56 | -1.48 |
| T152F | 0.642 | -1.23 | -0.471 | -0.132 | 1.29 |
